Measured values published in article PMC6602471.
Some of the results follow. At the low end of the ranking the order means little.

What follows are sequences tested against T1, ELK1 (UniProt P19419) (assay: custom PBM). Conditions: custom protein-binding microarray; buffer, salt, pH and temperature not stated; high values mean tight binding; double strand, one strand shown.
T1 sequence: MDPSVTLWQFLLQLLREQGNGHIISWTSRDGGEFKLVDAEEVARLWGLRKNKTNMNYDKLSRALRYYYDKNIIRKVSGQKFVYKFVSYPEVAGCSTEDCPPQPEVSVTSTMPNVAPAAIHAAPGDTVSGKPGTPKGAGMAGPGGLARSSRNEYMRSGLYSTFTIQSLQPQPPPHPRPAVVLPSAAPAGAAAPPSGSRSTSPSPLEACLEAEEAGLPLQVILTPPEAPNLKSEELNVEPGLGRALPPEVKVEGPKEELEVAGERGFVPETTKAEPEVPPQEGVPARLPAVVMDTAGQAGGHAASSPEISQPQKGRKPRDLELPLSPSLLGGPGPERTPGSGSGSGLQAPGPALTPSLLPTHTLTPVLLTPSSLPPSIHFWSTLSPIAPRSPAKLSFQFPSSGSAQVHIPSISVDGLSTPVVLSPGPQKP

| Sequence | binding signal (log fluorescence intensity) |
| --- | --- |
| GCTGCTGCGGTGCATACCCCAGCGGATGTGACCCCGGTCTTGATTCGCTTGACGCTGCTG | 9.14 |
| GATTAATATCTGCCCTTATTCGCACGTGCCATAACAGTCTTGATTCGCTTGACGCTGCTG | 8.95 |
| CACAATTTTTTCAGTAATGTAGCACGCGTAACTCCTGTCTTGATTCGCTTGACGCTGCTG | 8.81 |
| GTGTATAGGATCCCATCCAACACACGTGTTATAATGGTCTTGATTCGCTTGACGCTGCTG | 8.89 |
| CGGAAGTGTCGTAAAGGTCGGATATCCGGTTCTTCTGTCTTGATTCGCTTGACGCTGCTG | 12.4 |
| TACTGACTTATATATGCGAATGCACATGGATAGACCGTCTTGATTCGCTTGACGCTGCTG | 8.88 |
| GCTGCTGCGGTGCATACCCCACCGGATGTGTCCCCGGTCTTGATTCGCTTGACGCTGCTG | 9.8 |
| TACTGACTTATATATGCGAATGCACATCAATAGACCGTCTTGATTCGCTTGACGCTGCTG | 8.86 |
| GGAAAAAGGCCCAGGGTAACACCGGAATTGGGCTTAGTCTTGATTCGCTTGACGCTGCTG | 9.46 |
| CGGAAGTGGCGTAAACGTCGGATATCCGGTTCTTCTGTCTTGATTCGCTTGACGCTGCTG | 12.1 |
| GTGTATAGGATCCCATCCAACACACGTGTTAAAACGGTCTTGATTCGCTTGACGCTGCTG | 8.76 |
| CTGGGACTTGACCCAACTCTGCCACGTGGGGCGTTTGTCTTGATTCGCTTGACGCTGCTG | 8.94 |
| TAAAGGGAAGTCGGTTGTGGTAGTTCCGGGTATTAAGTCTTGATTCGCTTGACGCTGCTG | 11.8 |
| TTCGGCTACCAGCTCCACCCACTTCAGGCCTTGTAGGTCTTGATTCGCTTGACGCTGCTG | 8.78 |
| GATTAATTTCTGCCCTTATTCGCACGTGCTATAACAGTCTTGATTCGCTTGACGCTGCTG | 8.81 |
| CAGCATAGGACTTCTTCCCTGAAGCAAATGATAACCGTCTTGATTCGCTTGACGCTGCTG | 8.83 |
| TCCGGCTACCAGCTCCACCCACTTCAGGCCTGGTAGGTCTTGATTCGCTTGACGCTGCTG | 8.82 |
| CACAATTGTTACAGTAATGTAGCACGCGTAACTCCTGTCTTGATTCGCTTGACGCTGCTG | 8.91 |
| TCCGGCTACCAGCTCCATCCACTTCAGGCCTTGTAGGTCTTGATTCGCTTGACGCTGCTG | 8.84 |
| CAGCATAGGGCTTCTTCCCTGAAGCAATTGATAACCGTCTTGATTCGCTTGACGCTGCTG | 8.86 |

| Sequence | binding signal (log fluorescence intensity) |
| --- | --- |
| GCTGCTGCGGTGCATACCCCACCGGACGTGACCCCGGTCTTGATTCGCTTGACGCTGCTG | 9.54 |
| CACAATTATTACAGTAATGTAGCACGCGTAACTCCTGTCTTGATTCGCTTGACGCTGCTG | 8.86 |
| CGGAAGTGTCGTAAACGTCGGATATCCAGTTCTTCTGTCTTGATTCGCTTGACGCTGCTG | 9.15 |
| TACTGACTTATAAATGCGAATGCACATGAATAGACCGTCTTGATTCGCTTGACGCTGCTG | 8.85 |
| GTGTATAGGATCCCATCCAACACACGAGTTAAAATGGTCTTGATTCGCTTGACGCTGCTG | 8.83 |
| GGAAAAAGGCCCAGGGTAACACCGTAAGTGGGCTTAGTCTTGATTCGCTTGACGCTGCTG | 8.95 |
| CGGAAGTGTAGTAAACGTCGGATATCCGGTTCTTCTGTCTTGATTCGCTTGACGCTGCTG | 12.1 |
| CTGGGACTTGACCAAACTCTGCCACGTGGGTCGTTTGTCTTGATTCGCTTGACGCTGCTG | 8.97 |
| TCCGGCTACCAGCTCCACCCACTTCATGCCTTGTAGGTCTTGATTCGCTTGACGCTGCTG | 8.92 |
| GTGTATAGGATCCCATCCAACACACGTGTTTAAATGGTCTTGATTCGCTTGACGCTGCTG | 8.82 |
| TACTGACTTATATATGCGAATGCACCTGAATAGACCGTCTTGATTCGCTTGACGCTGCTG | 8.86 |
| CAGCATAGGACTTCTTCCCTGAAGCACTTGATAACCGTCTTGATTCGCTTGACGCTGCTG | 8.85 |
| GCTGCTGCGGTGTATACCCCACCGGATGTGACCCCGGTCTTGATTCGCTTGACGCTGCTG | 10.2 |
| GTGTATAGGATCCCATCCAACCCACGTGTTAAAATGGTCTTGATTCGCTTGACGCTGCTG | 8.73 |
| GTGTATAGGATCCCATCCATCACACGTGTTAAAATGGTCTTGATTCGCTTGACGCTGCTG | 8.84 |
| TCCGGCTAGCAGCTCCACCCACTTCAGGCCTTGTAGGTCTTGATTCGCTTGACGCTGCTG | 8.7 |
| TCCGGCTACCAGCTCCACCCACTTCAGGCCGTGTAGGTCTTGATTCGCTTGACGCTGCTG | 8.89 |
| GCTGCTGCCGTGCATACCCCACCGGATGTGACCCCGGTCTTGATTCGCTTGACGCTGCTG | 10.4 |
| GGAAAAAGGCCCAGGGTATCACCGGAAGTGGGCTTAGTCTTGATTCGCTTGACGCTGCTG | 10.9 |
| TGTTGGGTAAGGGAATGTAGATCACGTGAATGAAAAGTCTTGATTCGCTTGACGCTGCTG | 8.84 |
